The source of these data is article PMC9730857 (ACS chemical neuroscience, 2022).

Data set [1] addresses T1, rTAAR1 (Rattus norvegicus, UniProt Q923Y9). Kind of data set: rTAAR1 cAMP Schild analysis. The conditions noted are these: rTAAR1 cAMP assay. On the technique in general: Changes in cAMP serve as a functional read-out for many G protein-coupled receptors.
In data set [2] the target is T1, rTAAR1. The data set can be described thus: rTAAR1 cAMP agonist assay.
Another data set deals with human sigma 2 (Homo sapiens, UniProt Q5BJF2). Kind of data set: NIMH PDSP radioligand binding, human sigma 2.
Sequence of UniProt Q5BJF2 (Q5BJF2 whole entry): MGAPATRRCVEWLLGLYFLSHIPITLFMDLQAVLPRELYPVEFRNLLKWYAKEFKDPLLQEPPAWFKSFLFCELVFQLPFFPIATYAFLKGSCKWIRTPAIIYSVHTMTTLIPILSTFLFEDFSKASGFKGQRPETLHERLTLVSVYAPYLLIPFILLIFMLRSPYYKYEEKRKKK
The nature of data set [3]: Metabolic stability in mouse liver microsomes. It counts as in vitro ADME. The conditions noted are these: pH 7.4. A general note: Liver microsomes are vesicles of endoplasmic reticulum, rich in cytochrome P450 enzymes.
In another data set the test system is panel of 42 targets. Kind of data set: NIMH PDSP off-target radioligand binding panel. The conditions noted are these: 10 μM, except BZP rat brain site and human sigma 2.
The nature of data set [4]: Metabolic stability in rat liver microsomes. It counts as in vitro ADME. The conditions noted are these: pH 7.4.
The nature of data set [5]: Kinetic solubility in phosphate buffer pH 7.4. It counts as physicochemical. The conditions noted are these: pH 7.4, aqueous buffer, kinetic from dmso stock.
A further data set relates to P-gp (MDR1). Kind of data set: Bidirectional permeability through MDCK-mdr1 monolayers. It counts as in vitro ADME. The conditions noted are these: dog, MDCK-MDR1, pH 7.4.
For data set [6], the target named is T2, mTAAR1 (Mus musculus, UniProt Q923Y8). The data set can be described thus: [3H]RO5166017 radioligand binding, mTAAR1 membranes.
T2 sequence (Q923Y8 whole entry): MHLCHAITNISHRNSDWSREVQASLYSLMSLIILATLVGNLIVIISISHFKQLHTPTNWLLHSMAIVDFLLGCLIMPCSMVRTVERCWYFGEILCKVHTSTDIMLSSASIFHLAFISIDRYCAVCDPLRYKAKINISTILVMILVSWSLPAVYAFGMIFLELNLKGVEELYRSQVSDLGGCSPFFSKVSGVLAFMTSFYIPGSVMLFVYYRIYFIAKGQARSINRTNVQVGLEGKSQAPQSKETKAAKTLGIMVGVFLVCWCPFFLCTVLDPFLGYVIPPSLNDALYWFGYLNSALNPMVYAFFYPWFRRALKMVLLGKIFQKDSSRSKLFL
Data set [7] is described as follows: Metabolic stability in human liver microsomes. The class given is in vitro ADME. The conditions noted are these: pooled human liver microsomes, pH 7.4.
The next data set relates to BZP rat brain site. Kind of data set: NIMH PDSP radioligand binding, BZP rat brain site.
Data set [8] addresses T2, mTAAR1. The data set can be described thus: mTAAR1 cAMP agonist assay.
In another data set the test system is VTA dopamine neurons. Kind of data set: Electrophysiology, spontaneous firing of VTA dopamine neurons in mouse slices. The class given is cell-based. The conditions noted are these: for Firing rate of dopamine neurons: baseline 0.6 ± 0.1 Hz.
The target in data set [9] is T1, rTAAR1. The data set can be described thus: rTAAR1 LanceUltra cAMP IC50.
Data set [10] has as its target T2, mTAAR1. Kind of data set: mTAAR1 LanceUltra cAMP IC50.
Data set [11] concerns the target T2, mTAAR1. The conditions noted are these: cited from earlier work.
For data set [12] the following is noted: literature; cited from earlier work.
In data set [13] the target is T1, rTAAR1. The data set can be described thus: Literature functional data at rTAAR1. The conditions noted are these: from literature IC50 values. The class given is cell-based.
Data set [14] concerns the target T1, rTAAR1. The conditions noted are these: read-out: EC50 at rTAAR1; literature; cited from earlier work.

Values after ≈ are worked out from the molar mass of the structure shown. Read-outs that look alike come from different tables or passages of the source.

T1 sequence (Q923Y9 whole entry): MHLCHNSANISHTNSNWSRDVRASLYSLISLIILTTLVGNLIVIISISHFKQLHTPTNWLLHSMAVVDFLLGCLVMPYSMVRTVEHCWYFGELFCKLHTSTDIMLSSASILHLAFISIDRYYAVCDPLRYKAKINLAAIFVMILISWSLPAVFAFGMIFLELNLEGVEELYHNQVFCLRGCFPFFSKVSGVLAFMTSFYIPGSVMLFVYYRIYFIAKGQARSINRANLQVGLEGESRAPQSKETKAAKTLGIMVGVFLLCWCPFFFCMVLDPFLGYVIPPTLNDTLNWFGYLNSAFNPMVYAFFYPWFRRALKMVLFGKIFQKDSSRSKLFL

With `N#Cc1c(C(F)(F)F)cc(-c2ccc(Cl)cc2)nc1SCC(=O)Nc1ncccn1` [Compound 34, 2-[[6-(4-chlorophenyl)-3-cyano-4-(trifluoromethyl)-2-pyridinyl]thio]-N-2-pyrimidinylacetamide], at rTAAR1 [1], the “Schild plot slope (rTAAR1)” value was −0.3. The “Change of rTAAR1-mediated cAMP production” value on rTAAR1 [2] (10 μM) is −15.4%. Moreover, the Ki on human sigma 2 came out at 8.4 µM; on mTAAR1 [6], 0.139 ± 0.066 µM; on BZP rat brain site (read-out: Ki at BZP rat brain site, follow-up concentration response), 1 µM. Moreover, the inhibition at 10 µM at human sigma 2 (read-out: Inhibition at human sigma 2) is 90%. Besides, the results for the half-life at 10 μM in data set [3], in data set [4] and in [7] were 1.1 h, 9.11 min and 1.4 h, respectively. The “Off-target activity in panel of 42 targets” value in the data set on panel of 42 targets was “little to no off-target activity”. Moreover, in [5], the kinetic solubility at 90 min stood at 1.7 ± 0.5 µM (≈ 0.765 µg/mL). Moreover, the Papp A→B at 90 min, 10 μM in the data set on P-gp (MDR1) was found to be 138 nm/s. Also, the Papp B→A at 90 min, 10 μM in the data set on P-gp (MDR1) came out at 139 nm/s. In addition, in the data set on P-gp (MDR1), the efflux ratio at 90 min, 10 μM is 1. Moreover, the microsomal CLint at 10 μM in data set [7] was found to be 14.9 µL/min/mg. Also, in the data set on BZP rat brain site (10 μM, radioligand binding), the “Inhibition at BZP rat brain site” value is 75%. Besides, the “Change of mTAAR1-mediated cAMP production” value on mTAAR1 [8] (10 μM) was −12.0%. Besides, the “Change in firing from baseline” value in the data set on VTA dopamine neurons (0.1 μM) is 0.19 ± 0.1 Hz; in the data set with VTA dopamine neurons (10 μM) it was 0.4 ± 0.1 Hz; in the data set with VTA dopamine neurons (40 μM), 0.7 ± 0.2 Hz. Further, the “Firing rate of dopamine neurons” value with VTA dopamine neurons (40 μM applied after EPPTB 10 nM) stood at 0.7 ± 0.1 Hz. Also, the “Firing rate of VTA dopamine neurons” value in the data set on VTA dopamine neurons (40 μM, baseline 1.0 ± 0.2 Hz) amounted to 2.3 ± 0.6 Hz. Moreover, the IC50 on rTAAR1 [9] came out at 0.748 ± 0.056 µM; at mTAAR1 [10], 1.19 ± 0.08 µM. Further, at rTAAR1 [9] (functional cAMP IC50 values), the “fold less potent at rTAAR1 than at hTAAR1” value amounted to 89 fold. In addition, the “fold less potent at mTAAR1 than at hTAAR1” value on mTAAR1 [10] (functional cAMP IC50 values) was found to be 142 fold.

For `CCOc1cccc(NC(=O)c2ccc(N3CCCC3)c(C(F)(F)F)c2)c1` [EPPTB, N-(3-ethoxyphenyl)-4-(pyrrolidin-1-yl)-3-trifluoromethylbenzamide], on mTAAR1 [11] (read-out: mTAAR1 IC50, literature value), the IC50 was 0.0275 ± 0.0094 µM. For the same molecule, in data set [12], the brain/plasma ratio is reported as 0.5 and the “clearance” value is recorded as “high clearance”. The “Firing rate of dopamine neurons” value in the data set on VTA dopamine neurons (10 nM) is 0.9 ± 0.1 Hz. Further, the “fold less potent at rTAAR1 than at mTAAR1 (functional)” value at rTAAR1 [13] is listed as 165 fold.

As to `NCCc1ccccc1` [PEA, β-phenethylamine, reference compound], the EC50 at mTAAR1 [11] (read-out: EC50 at mTAAR1, literature) was 0.2 µM; at rTAAR1 [2] (read-out: EC50 at rTAAR1, control agonist, cAMP assay), 0.231 ± 0.015 µM; at rTAAR1 [14], 0.11 µM; on mTAAR1 [8] (read-out: EC50 at mTAAR1, control agonist, cAMP assay), 0.15 ± 0.009 µM.

Turning to `CCN(C[C@H]1COC(N)=N1)c1ccccc1` [RO5166017, reference compound], the “Effect on firing of dopamine neurons” value with VTA dopamine neurons (500 nM agonist alone) is listed as “significantly decreased firing of dopamine neurons”.

By Ki is commonly meant the equilibrium dissociation constant of an inhibitor or competing ligand from its target. One may read the inhibition as the share of the control response that was lost under treatment. One may read the half-life as the time in which the quantity being followed falls by half. As usually defined, the kinetic solubility is the concentration staying in solution when a stock, usually in DMSO, is diluted into the medium. By Papp A→B is commonly meant how fast a substance crosses the layer from the apical side. As usually defined, the Papp B→A is how fast a substance crosses the layer from the basolateral side. The term efflux ratio denotes a quotient of directional permeabilities that is used to spot active efflux. Broadly, the microsomal CLint is the capacity of the preparation to metabolise the compound, expressed as a volume cleared per time. The low end stands for greater metabolic stability, the high end for faster metabolism. Broadly, the Inhibition is the change of the read-out against control, counted positive when it falls. High values mean a response far below the control, low ones a response near the control. One may read the IC50 as the concentration that gives 50% inhibition. Broadly, the EC50 is the concentration at which the effect is half-maximal.
